In PubChem BioAssay AID485281 (National Center for Advancing Translational Sciences (NCATS), 2010):
In all, about 350,000 compounds went through this assay and about 260 (0.074%) were called active. The inconclusive results got no clear call from the source; some entries with a clear call stand among them for comparison. Calls follow the shape of the dose curve; as a rule, active = well fitted inhibition curve with a large enough effect; inconclusive = small, poorly fitted or top-dose-only effect; inactive = no such curve, though single readings can be large or run the other way. Potencies beside an inconclusive call are fits to weak or partial responses and may not hold up.

Target: Ferritin light chain (Equus caballus) (UniProt P02791)
Assay: qHTS Assay for Identification of Novel General Anesthetics; also: nearly all actives have a fitted effect of over 20% in size
Conditions: apoferritin/1-aminoanthracene competitive binding, fluorescence; series mostly up to 77.5 µM
In short: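 Concentration-response curves derived by four-parameter Hill fitting of normalized fluorescence, where compounds displaced 1-AMA from 10 uM horse apoferritin following a brief 10 min room-temperature incubation; propofol titration acted as positive control.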
Potency is read from the fitted curve at half-maximal effect; tags tell the direction and shape of the fitted curve.

UniProt P02791, sequence (P02791 whole entry, looked up): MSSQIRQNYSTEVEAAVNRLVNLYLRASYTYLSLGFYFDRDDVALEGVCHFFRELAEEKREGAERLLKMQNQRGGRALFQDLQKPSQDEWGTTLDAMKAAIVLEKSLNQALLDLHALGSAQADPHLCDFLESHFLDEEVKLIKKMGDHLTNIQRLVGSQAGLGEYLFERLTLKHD

Row | Compound | Potency
1 | Cn1ccnc1SCC(=O)c1cccc(Br)c1 | inconclusive: 35.5 µM [inhibitor, partial curve]
2 | CCCCCCCCCC(=O)Nc1cccnc1 | inconclusive: 35.5 µM [inhibitor, single point]
3 | CCc1ccc(NC(=O)Cn2c(=O)c(-c3ccccc3NC(C)=O)nc3ccccc32)cc1 | inactive
4 | O=C(Nc1ccc(Cc2ccncc2)cc1)C1CCC(N2C(=O)C3C4C=CC(C4)C3C2=O)CC1 (centres undefined) | inconclusive: 25.1 µM [inhibitor, partial curve]
5 | Nc1c(C(=O)c2cccs2)oc2ccccc12 | inconclusive: 12.6 µM [inhibitor, partial curve, poor fit]
6 | CCN(C(=O)CSc1ncn[nH]1)C1CCCCC1 | inconclusive: 28.2 µM [inhibitor, partial curve]
7 | O=C(Nc1cccc2ccccc12)N1CC=CCC1 | inconclusive: 44.7 µM [inhibitor, partial curve]
8 | CCCC(=O)NC(Nc1ccccc1OC)C(Cl)(Cl)Cl (centres undefined) | inconclusive: 25.1 µM [inhibitor, partial curve]
9 | CCC(CC)C(=O)c1c[nH]c(C(=O)NC2CCCCCC2)c1 | inconclusive: 28.2 µM [inhibitor, single point]
10 | CC(=O)c1c(C)nc2ccccc2c1N | inactive
11 | [O-]/C(=C(\C(=S)NCc1ccco1)[n+]1ccccc1)c1ccccc1Br | inconclusive: 28.2 µM [inhibitor, partial curve]
12 | O=C(COC(=O)c1ccc(Br)o1)NC1CCCCC1 | inconclusive: 25.1 µM [inhibitor, partial curve]
13 | CCc1cc2ccc(OC)cc2nc1SCC(=O)NNC(=O)c1ccco1 | inconclusive: 31.6 µM [inhibitor, single point]
14 | Cc1ccc(/C=C(\C#N)C(=O)Nc2ccccn2)o1 | inconclusive: 28.2 µM [inhibitor, single point]
15 | O=C(Nc1ccc2c(c1)OCO2)C1CCN(c2ccc(S(=O)(=O)N3CCOCC3)cc2)CC1 | inconclusive: 14.1 µM [inhibitor, partial curve]
16 | N#C/C(=C\c1ccc(Cl)cc1Cl)c1n[nH]c(Cn2cncn2)n1 | inactive
17 | O=C(c1ccc(COc2ccccc2Br)cc1)N1CCCCCC1 | inconclusive: 3.55 µM [inhibitor, full curve]
18 | Cc1cccc(NC(=O)CSCc2nc3c(nnn3Cc3ccc(F)cc3)c(=O)[nH]2)c1C | inconclusive: 28.2 µM [inhibitor, single point]
19 | Cc1cn(C2CC3OCC(NC(=O)C4CCCN4C(=O)OC(C)(C)C)C3O2)c(=O)[nH]c1=O (centres undefined) | inactive
20 | Cc1cccc(N2CCN(C(=O)C3CCCCC3)CC2)c1C | inconclusive: 50.1 µM [inhibitor, single point]
21 | CCCNC(=O)c1ccc2c(=O)c(O)c(-c3cccc(Br)c3)[nH]c2c1 | inactive
22 | O=C(CNC(=O)c1ccc(Br)o1)NC12CC3CC(CC(C3)C1)C2 | inconclusive: 50.1 µM [inhibitor, single point]

Row | Compound | Potency
23 | COc1ccccc1CNc1cc(-c2ccccc2)nc2nncn12 | inactive
24 | CC(=O)c1ccc(C(=O)N(CCCN(C)C)c2nc3c(C)c(C)ccc3s2)cc1 | inconclusive: 50.1 µM [inhibitor, single point]
25 | Cc1cccc(NC(=O)CSCC(=O)NNC(=O)c2ccoc2C)c1 | inconclusive: 31.6 µM [inhibitor, partial curve]
26 | O=C(CCCc1ccccc1)NCCC1=CCCCC1 | inconclusive: 17.8 µM [inhibitor, partial curve]
27 | CC(C)(C)c1ccc(C(=O)NNC(=O)Cc2cccc3ccccc23)cc1 | inconclusive: 6.31 µM [inhibitor, full curve, poor fit]
28 | COc1cccc(OCc2cc(C(=O)N3CCCC3c3ccccn3)no2)c1 (centres undefined) | inconclusive: 50.1 µM [inhibitor, single point]
29 | CCOC(=O)c1cnc2c(C)c(Cl)ccc2c1Nc1ccc(C)cc1C | inconclusive: 10 µM [inhibitor, partial curve]
30 | CC(/C=N/NC(=O)c1cccs1)=C\c1ccccc1 | inconclusive: 28.2 µM [inhibitor, single point]
31 | Cc1ccc(N2NC(=O)/C(=C\c3cc4c(cc3[N+](=O)[O-])OCO4)C2=O)cc1C | inconclusive: 56.2 µM [inhibitor, single point]
32 | Cc1cccc(S(=O)(=O)Nc2nc3ccccc3nc2Nc2ccc3c(c2)OCO3)c1 | inactive
33 | COc1ccc(C(C)(C)C)cc1NC(=O)c1cc(S(=O)(=O)N(C)C)ccc1N1CCCC1 | inconclusive: 8.91 µM [inhibitor, full curve, poor fit]
34 | CC(C)c1ccc(NC(=O)c2cccc(NC3=NC4CS(=O)(=O)CC4S3)c2)cc1 (centres undefined) | inconclusive: 28.2 µM [inhibitor, single point]
35 | CCCC[C@@H](C)/C=C(C)/C=C(\C)C(=O)NC1=C[C@@](O)(/C=C/C=C/C=C/C(=O)NC2=C(O)CCC2=O)[C@@H]2O[C@@H]2C1=O | inconclusive: 31.6 µM [inhibitor, partial curve]
36 | CCCC(=O)N(CCN1CCOCC1)c1nc2c(OC)ccc(C)c2s1 | inactive
37 | CN1/C(=C\C=C2/SC(=S)NC2=O)C(C)(C)c2ccccc21 | inconclusive: 35.5 µM [inhibitor, partial curve]
38 | COc1cc(OC)c2c(c1O)OC(c1ccccc1)CC2=O (centres undefined) | inactive
39 | O=[N+]([O-])c1cc(/C=N/O)ccc1SCc1ccccc1Cl | inconclusive: 28.2 µM [inhibitor, partial curve]
40 | COc1cccc(-c2cncnc2-n2ccnc2)c1 | inactive
41 | CCC(CC)C(=O)NC12CC3CC(CC(C3)C1)C2 | inactive
42 | Cc1ccc(S(=O)(=O)N/N=C2\C(=O)C3(C)CCC2C3(C)C)cc1 (centres undefined) | inactive
43 | CCc1ccc(-c2nc(CSCC(=O)N3CCN(c4ccccn4)CC3)c(C)o2)cc1 | inconclusive: 28.2 µM [inhibitor, single point]
44 | Cn1c(Cn2nnc3ccccc32)nnc1SCC(=O)N1c2ccccc2CCc2ccccc21 | inactive
